These are yes or no findings as the source states them, for the method shown. Some binding calls cover weakened binding; strength is not graded here.

In assay [1] the target is T1, Stn1 (S. pombe (fission yeast)) (UniProt Q0E7J7).
T1 sequence: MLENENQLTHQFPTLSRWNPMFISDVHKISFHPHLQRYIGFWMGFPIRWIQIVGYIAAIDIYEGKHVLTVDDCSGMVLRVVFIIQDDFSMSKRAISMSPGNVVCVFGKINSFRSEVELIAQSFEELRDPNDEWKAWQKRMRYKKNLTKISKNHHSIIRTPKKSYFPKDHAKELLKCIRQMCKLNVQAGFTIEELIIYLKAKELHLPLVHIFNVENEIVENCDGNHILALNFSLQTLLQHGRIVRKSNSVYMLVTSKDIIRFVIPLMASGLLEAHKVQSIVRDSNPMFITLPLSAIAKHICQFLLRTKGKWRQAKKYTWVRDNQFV
As to the kind of experiment: two-hybrid; as a1, but with Ten1 co-expressed alongside the GBD-Stn1 fusion protein; GBD and GAD plasmids in budding yeast PJ69-4A; growth on Sc-TRP-LEU-HIS and Sc-TRP-LEU-HIS-ADE; 30°C, 2 days.

The target of assay [2] is T1, Stn1 (S. pombe (fission yeast)). Put plainly: two-hybrid; Gal4 DNA binding domain (GBD) and Gal4 activating domain (GAD) plasmids co-transformed in budding yeast PJ69-4A; fivefold dilutions spotted on Sc-TRP-LEU-HIS and Sc-TRP-LEU-HIS-ADE; 30°C, 2 days; without co-expressed Ten1.
Assay [3] addresses T2, Ten1 (S. pombe (fission yeast)) (UniProt P0C5Y7).
T2 sequence: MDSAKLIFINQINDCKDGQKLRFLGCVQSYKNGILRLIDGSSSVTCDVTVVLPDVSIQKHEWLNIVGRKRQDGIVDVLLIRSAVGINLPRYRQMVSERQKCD
The assay is described as above.

B1: Tpz1 243–420 (domain or fragment, UniProt O14246 243-420)
chain: QEDNDEDLDAYSWSSSTDSAGEIPSLPTNRKILEKIAEKPPPFESPLEDDETPDQTNEHEANQVNVSQLPLNPRGSGISGRPVESTEQLNSSLTIERSQSIQSTDSKQRVETQSHRRSKIEIFDAQDELFDRSICTTIDDSTGKLLNAEETPIKTGDLHSTSASSVISCTPPAINFTS
On to B1, for which the figures for the binding entry in assay [1] and in assay [2] were “binds” and “binds weakly”, respectively.

B2: SUMO (Pmt3) (protein, UniProt O13351 1-117)
chain: MSESPSANISDADKSAITPTTGDTSQQDVKPSTEHINLKVVGQDNNEVFFKIKKTTEFSKLMKIYCARQGKSMNSLRFLVDGERIRPDQTPAELDMEDGDQIEAVLEQLGGCTHLCL
In the case of B2, the figures for the binding result in assay [1], in assay [3] and in assay [2] were “binds”, “no binding” and “binds”, respectively.

B3: Tpz1 (protein, UniProt O14246 1-508)
chain: MSNCLKHPWLENGLLNLIKNADVLPIRVFKCQPLQIFEYIRYEHPIRCKLSDTEFYIEAEFSSQSISDLNNFTEKRITSLRGGIVTLGNFLIHLIPSQSGIIPWIQVESFNFQGCEGAVFGNPKAITTSALFNALLQSPYLAALANEFNRSIKEGSSYQEASLSQQEKPNDNTSNSRDIKNNIQFHWKNMTSLSIEECIIPKGQQLILEKESEENTTHGIYLEERKMAQGLHNSVSETPEVKQEDNDEDLDAYSWSSSTDSAGEIPSLPTNRKILEKIAEKPPPFESPLEDDETPDQTNEHEANQVNVSQLPLNPRGSGISGRPVESTEQLNSSLTIERSQSIQSTDSKQRVETQSHRRSKIEIFDAQDELFDRSICTTIDDSTGKLLNAEETPIKTGDLHSTSASSVISCTPPAINFTSDICNEQIELEYKRKPIPDYDFMKGLETTLQELYVEHQSKKRRLELFQLTNNHQKNSEACEMCRLGLPHGSFFELLRDWKKIEEFRNKS
With B3, the figures for the binding result in assay [1], in assay [3] and in assay [2] were “binds”, “no binding” and “binds weakly”, respectively.
